These results are taken from ChEMBL document CHEMBL4888484, “Replenishing the malaria drug discovery pipeline: Screening and hit evaluation of the MMV Hit Generation Library 1 (HGL1) against asexual blood stage Plasmodium falciparum ,using a nano luciferase reporter read-out” (2022).

Molecules are shown by their SMILES. Screen size: about 150,000 compounds; about 540 (0.36%) showed an effect of 50% or more. Some of the results follow.

This experiment concerns Plasmodium falciparum. Description: Primary screen in NF54 nanoGlo assay, in single point, at 2uM, 72h; a lower Z score goes with more inhibition. In kind it is functional, Erythrocyte. The settings on record: timepoint 72 hour.
As for `Cc1cc(Br)cc(C(=O)NCCCNS(C)(=O)=O)c1`, the “% Inhibition” value is on record as -16% and the Z score worked out at 1.59.
As to `COc1cccc(Cn2c(C3CCCCC3)n[nH]c2=O)c1`, the “% Inhibition” value is listed as -9% and the Z score is 0.94.
Take `CC1=CC[C@H]2CN(c3ccc4cc[nH]c4n3)C[C@H]2C1`: the “% Inhibition” value was -11% and the Z score turned out to be 1.44.
For the compound `Cn1cc(CCC(=O)N2CCCn3cc(-c4ccccc4)nc32)cn1`, the “% Inhibition” value is -5% and the Z score was determined as 0.65.
For `O=C1C[C@H](c2ccc(O)cc2)c2c(c(C(=O)O)cn2-c2ccccc2)N1`, the “% Inhibition” value is on record as -8% and the Z score is 1.08.
The corresponding values for `CCc1nc(C#N)cc(N[C@@H]2C[C@H](O)[C@H]2n2cc(C)cn2)n1` are -9% and 1.73.
The corresponding values for `Cn1cnc2c1CCC1C2CCCN1CC(=O)NC1CC1` (centres undefined) are -13% and 2.57.
With `CC1(C)CN(C(=O)Nc2ccc(Oc3cccc(F)c3F)nc2)C[C@@H]1O`, the “% Inhibition” value is on record as -7% and the Z score amounted to 1.05.
The corresponding values for `Cc1cc(CCNC(=O)c2ccncc2)on1` are -3% and 0.44.
On to `O=C1N[C@H](Cc2ccccc2)C(=O)N2CCN(S(=O)(=O)c3ccccc3F)C[C@H]12`, for which the “% Inhibition” value is -4% and the Z score is 0.45.
The corresponding values for `CCCc1nc(-c2nc(-c3ccc4[nH]cnc4c3)no2)cs1` are -3% and 0.48.
Regarding `O=C1CCC[C@@H](C(=O)Nc2cc(F)cc(F)c2O)N1`, the “% Inhibition” value is -2% and the Z score is recorded as 0.32.
The corresponding values for `COC(=O)c1c(C)nn(Cc2c(C)noc2C)c1C` are -11% and 2.02.
With `CNC(=O)c1cc(NC(=O)N2CC=C(C)CC2)ccc1OC`, the “% Inhibition” value is listed as -8% and the Z score was 1.
Turning to `CCCC(c1ccccn1)N(C)CC(O)COCc1cccs1` (centres undefined), the “% Inhibition” value is reported as 28% and the Z score is on record as -2.85.
For `CC(=O)N1CC[C@@]2(O)CCN(Cc3ccc(C(F)(F)F)c(F)c3)C[C@H]2C1`, the “% Inhibition” value is -3% and the Z score was found to be 0.52.
The corresponding values for `O=C(CCc1cccnc1)N1CCC(C(F)(F)F)(C(F)(F)F)C1` are -11% and 1.09.
The matching figures for `Cc1nsc(NC2CCCCC2O)n1` (centres undefined): 4% and -0.33.
The matching figures for `Cc1ncsc1C(=O)N(Cc1cccnc1)Cc1ccco1`: -7% and 1.19.
As to `O=C(C[C@H]1CCCS(=O)(=O)C1)N1CC(Nc2ccc(F)cc2)C1`, the “% Inhibition” value is -8% and the Z score turned out to be 1.13.
The matching figures for `O[C@@H]1c2ccc(-c3cc(F)cc4cccnc34)cc2OC[C@H]1N1CCCC1`: -14% and 1.34.
Turning to `CCC(CC)(NCC(=O)NC1CC1)c1ccc(Cl)cc1`, the “% Inhibition” value stood at 29% and the Z score is 0.09.
For `CCCc1cc(NS(=O)(=O)Cc2ccc(C)c(F)c2)n[nH]1`, the “% Inhibition” value is on record as 4% and the Z score is -0.6.
For `COc1ccc(CCNC(=O)c2cc(N3CCc4cc(OC)c(OC)cc4C3)nc3ccccc23)cc1OC`, the “% Inhibition” value is 5% and the Z score was -0.56.
With `CCNC(=O)N1CCCN(c2nc(CC(C)C)nc3onc(-c4cccc(C(F)(F)F)c4)c23)CC1`, the “% Inhibition” value worked out at 10% and the Z score was -1.21.
Take `CN(Cc1ccc(C(F)(F)F)c(F)c1)Cc1ncon1`: the “% Inhibition” value is -8% and the Z score came to 0.84.
The matching figures for `C[C@H](N)c1ccc(F)c(Br)c1`: 8% and -0.94.
The corresponding values for `COC(=O)c1ccncc1C(=O)O[C@@H](C)C(=O)N(C)C` are -14% and 1.21.
The matching figures for `CC(C)[C@@H]1NC2(CCN(S(=O)(=O)c3ccccc3)CC2)N(Cc2ccc(F)cc2)C1=O`: -20% and 2.45.
For the compound `Cn1cnnc1C1CCN(c2cccc(F)c2C#N)CC1`, the “% Inhibition” value is given as -10% and the Z score stood at 1.27.
The corresponding values for `O=C(c1cc2ccccc2o1)N1CCC[C@H](CN2CCCCCC2)C1` are -12% and 1.65.
Turning to `c1ccc(-c2nnn(Cc3nnc4ccccn34)n2)cc1`, the “% Inhibition” value worked out at 1% and the Z score is on record as -0.2.
The matching figures for `C1CCCC(NCC2(N3CCOCC3)CCCCC2)CC1`: 3% and -0.4.
The matching figures for `Cc1cc(N[C@H]2Cc3ccccc3[C@@H]2N)n2nccc2n1`: 15% and -2.
Consider `C[C@H]1CCCN(C(=O)c2cnn(-c3ccccc3)n2)CC1`, for which the “% Inhibition” value is listed as -7% and the Z score is listed as 1.03.
As for `CCN(CC)S(=O)(=O)c1cccc(C(=O)Oc2ccc(-c3nnco3)cc2)c1`, the “% Inhibition” value is recorded as -13% and the Z score is 1.69.
On to `CS(=O)(=O)N1CCC(C(=O)Nc2ncn(Cc3ccc(Cl)cc3Cl)n2)CC1`, for which the “% Inhibition” value is on record as -32% and the Z score is listed as 3.78.
Consider `Cn1cc(Cl)c(C(=O)Nc2ccc(Oc3nnn[nH]3)cc2)n1`, for which the “% Inhibition” value is reported as -11% and the Z score is 1.57.
As to `CN(CC1CCCCO1)C(=O)CC1(c2ccccc2)CC(=O)N(Cc2cccs2)C1=O` (centres undefined), the “% Inhibition” value was determined as 11% and the Z score is listed as -1.5.
The matching figures for `Cc1ccc(S(=O)(=O)N2CCC3(CC2)NCCN=C3NCc2ccc3c(c2)OCO3)c(C)c1`: 2% and -0.26.
On to `CC(C)(C)c1ccncc1CNC(=O)c1ncc[nH]1`, for which the “% Inhibition” value is listed as -4% and the Z score is reported as 0.47.
For `CCc1ccc(-c2cc(-c3nc(CC(N)=O)nn3C(C)(C)C)[nH]n2)cc1`, the “% Inhibition” value is on record as -15% and the Z score came out at 2.99.
